In US20240083996A1, “COMPOSITION FOR PROPHYLAXIS OR TREATMENT OF IL-8 RELATED DISEASES” (Chugai Seiyaku Kabushiki Kaisha, priority 2016, published 2024):

Assays:
[1] = test system: Extracellular matrix (BD Matrigel Basement Membrane Matrix); experiment: Amount of antibody binding to the extracellular matrix by the ECL method; details: antibody 3 μg/mL, pH 7.4 (FIG. 23)
Protocol: Extracellular matrix (the BD Matrigel Basement Membrane Matrix/manufactured by BD) was diluted to 2 mg/mL using TBS (Takara, T903). The diluted extracellular matrix was dispensed into the MULTI-ARRAY 96 well Plate, High bind, Bare (manufactured by Meso Scale Discovery: MSD) at 5 μL per well, and immobilized overnight at 4° C. Then, blocking was performed using 20 mM ACES buffer (pH 7.4) containing 150 mM NaCl, 0.05% Tween20, 0.5% BSA, and 0.01% NaN3.
The antibodies to be evaluated were prepared as follows. The antibody samples to be added alone were prepared by diluting each antibody to 9 μg/mL using Buffer-1 shown below, and then further diluting them using Buffer-2 to a final concentration of 3 μg/mL. Buffer-1: 20 mM ACES buffer containing 150 mM NaCl, 0.05% Tween20, and 0.01% NaN3, at pH 7.4 Buffer-2: 20 mM ACES buffer containing 150 mM NaCl, 0.05% Tween20, 0.1% BSA, and 0.01% NaN3, at pH 7.4 […]
Next, solutions of the antibody alone or the complex were added to the plate from which the blocking solution had been removed, and this was shaken at room temperature for one hour. […] The antibody for ECL detection was removed, a solution produced by 2-fold dilution of the MSD Read Buffer T (4×) (manufactured by MSD) using ultrapure water was added, and then the amount of luminescence was measured by SECTOR Imager 2400 (manufactured by MSD).

human IL-8 = human IL-8 (Homo sapiens, UniProt P10145); experiment: Mouse PK assay: human IL-8 elimination after simultaneous administration of human IL-8 and anti-human IL-8 antibody; format: in vivo, mice (C57BL/6J); details: mice, antibody 2 mg/kg with human IL-8
Protocol: After simultaneous administration of human IL-8 and anti-human IL-8 antibodies to mice (C57BL/6J, Charles river), pharmacokinetics of human IL-8 were evaluated. A mixed solution of human IL-8 and an anti-human IL-8 antibody (10 μg/mL and 200 μg/mL, respectively) was administered in a single dose at 10 mL/kg to the tail vein. […] Blood was collected five minutes, two hours, four hours, seven hours, one day, two days, three days, seven days, 14 days, 21 days, and 28 days after the administration. The collected blood was immediately centrifuged at 15,000 rpm and 4° C. for 15 minutes to obtain plasma. The separated plasma was stored in a freezer set at −20° C. or below until measurements were taken.
The human IL-8 concentration in mouse plasma was determined by an electrochemiluminescence method. First, an anti-human IL-8 antibody (prepared in-house) having a mouse IgG constant region was dispensed into a MULTI-ARRAY 96-well Plate (Meso Scale Discovery), and was allowed to stand at room temperature for one hour. Then, a PBS-Tween solution containing 5% BSA (w/v) was used for blocking at room temperature for two hours to prepare an anti-human IL-8 antibody-immobilized plate. […] The human IL-8 concentration was calculated based on the response in the calibration curve using the analytical software, SOFT Max PRO (Molecular Devices). […]

Chain of human IL-8 (P10145 23-99 limits assumed): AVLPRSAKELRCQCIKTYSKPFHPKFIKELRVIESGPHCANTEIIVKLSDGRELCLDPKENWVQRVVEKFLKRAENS

B1: H1009/L395: pH-dependent IL-8-binding antibody, H1009-IgG1m (SEQ ID NO:48) heavy chain, L395-kOMT light chain (antibody)
heavy: QVQLVESGGGLVQPGGSLRLSCAASGFTFSDYYLSWVRQAPGKGLEWVGLIRNKDNYHTPEYSASVKGRFTISRDDSKNSLYLTMSDLKTEDTAVYYCARENHRYDVELAYWGQGTLVTVSS[human IgG1 constant region skipped]
light: DIQMTQSPSSLSASVGDRVTITCRASEIIYSYLAWYQQKPGKAPKLLIYKAKTHADGVPSRFSGSGSGTDFTFTISSLQPEDIATYYCKHHFGFPRTFGQGTKVEIKRTVAAPSVFIFPPSDEQLKSGTASVVCLLNNFYPREAKVQWKVDNALQSGNSQESVTEQDSKDSTYSLSSTLTLSKADYEKHKVYACEVTHQGLSSPVTKSFNRGEC
binding to the extracellular matrix, complex with human IL-8 (+hIL8) ([1]; human IL-8 at ten times the molar concentration): bound to the extracellular matrix upon complex formation with human IL-8 | binding to the extracellular matrix, antibody alone (−IL8) [1]: hardly showed any binding to the extracellular matrix as the antibody alone | rate of human IL-8 elimination (CL) as compared to H998/L63 (human IL-8): approximately 30 fold
